We go through one compound from patent US20260184814A1 (priority 2022, published 2026).

The conditions of this data set: at 4° C., following reconstitution in sterile water for injection.

`CCOC(=O)C1=C[C@@H](OC(CC)CC)[C@H](NC(C)=O)[C@@H](N)C1` [Oseltamivir, oseltamivir]: the Stability result was “Up to 7 days (Study Days −1-5) at 4 °C”.
